{"source": "the BET-seq Pho4 binding data (Le et al. 2018)", "note": "The other results are listed elsewhere or left out. The energies were worked out here from pooled read counts, against the library average; single values are noisy."}
{"target": "T1, Pho4 (S. cerevisiae) (UniProt P07270)", "T1 sequence": "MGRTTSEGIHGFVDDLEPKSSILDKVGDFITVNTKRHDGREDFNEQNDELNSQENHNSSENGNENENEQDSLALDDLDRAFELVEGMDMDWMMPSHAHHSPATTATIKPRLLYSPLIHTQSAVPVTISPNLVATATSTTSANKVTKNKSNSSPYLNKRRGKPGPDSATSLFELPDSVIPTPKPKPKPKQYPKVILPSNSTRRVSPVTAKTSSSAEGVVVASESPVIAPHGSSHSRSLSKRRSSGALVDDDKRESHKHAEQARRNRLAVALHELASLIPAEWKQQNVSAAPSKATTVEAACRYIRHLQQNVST", "assay": "relative binding free energy (BET-seq); higher = weaker binding", "settings": "reference: library average", "units": {"relative binding free energy": "kJ/mol"}}
{"sequence": "GGATTCACGTGCAGTA", "relative binding free energy": 1.67}
{"sequence": "AGTGTCACGTGCTGAA", "relative binding free energy": -0.0837}
{"sequence": "TTGCGCACGTGGGGGA", "relative binding free energy": -1.13}
{"sequence": "CGGTGCACGTGTGGCT", "relative binding free energy": 0.0837}
{"sequence": "GAGGCCACGTGTTGGA", "relative binding free energy": -0.126}
{"sequence": "CCGTGCACGTGGGGGG", "relative binding free energy": -0.418}
{"sequence": "CAGATCACGTGGGAGT", "relative binding free energy": 0.251}
{"sequence": "GATGTCACGTGCGAGT", "relative binding free energy": 0.711}
{"sequence": "ATGTTCACGTGTGCAG", "relative binding free energy": 1.05}
{"sequence": "ATGTTCACGTGGTCGG", "relative binding free energy": 0.837}
{"sequence": "GTTTGCACGTGGAGGA", "relative binding free energy": 0.293}
{"sequence": "GGAAGCACGTGGGAAG", "relative binding free energy": -0.209}
{"sequence": "ATGGCCACGTGGTATT", "relative binding free energy": -0.46}
{"sequence": "ATATGCACGTGAGGCA", "relative binding free energy": 0.46}
{"sequence": "TAGGTCACGTGCTGCG", "relative binding free energy": 0.0837}
{"sequence": "TTAAACACGTGTGGAA", "relative binding free energy": 0.377}
{"sequence": "GCCGGCACGTGGGGCG", "relative binding free energy": -0.669}
{"sequence": "GGATGCACGTGAAGGT", "relative binding free energy": 0.669}
{"sequence": "TGGATCACGTGGCGTT", "relative binding free energy": 0.167}
{"sequence": "TATGGCACGTGATGTG", "relative binding free energy": 0.0418}
{"sequence": "GGTTTCACGTGCATAT", "relative binding free energy": 1.55}
{"sequence": "AGTAGCACGTGTGGCA", "relative binding free energy": -0.418}
{"sequence": "TAAGTCACGTGTTTTC", "relative binding free energy": 0.377}
{"sequence": "TATCGCACGTGTCGTT", "relative binding free energy": 0.0418}
{"sequence": "AACGGCACGTGGGGTT", "relative binding free energy": -1}
{"sequence": "TAGGACACGTGAGTTC", "relative binding free energy": 2.22}
{"sequence": "AGGTTCACGTGGAGTA", "relative binding free energy": 1.13}
{"sequence": "TATAGCACGTGATTCG", "relative binding free energy": 0}
{"sequence": "GTGGGCACGTGGATAG", "relative binding free energy": -0.0418}
{"sequence": "TAGTGCACGTGGCGGT", "relative binding free energy": -0.209}
{"sequence": "AGGTGCACGTGGTTTG", "relative binding free energy": -0.628}
{"sequence": "AGGAACACGTGTGCTG", "relative binding free energy": 0.167}
{"sequence": "AAGGTCACGTGTTCGT", "relative binding free energy": 0.377}
{"sequence": "TGCTGCACGTGTATTG", "relative binding free energy": -0.335}
{"sequence": "CTTTTCACGTGTTCGG", "relative binding free energy": 0.628}
{"sequence": "ATTTACACGTGGTGAA", "relative binding free energy": 0.209}
{"sequence": "TTAGACACGTGGAGAG", "relative binding free energy": 0.795}
{"sequence": "CGGTTCACGTGCGGAG", "relative binding free energy": 1.05}
{"sequence": "GTTCACACGTGGGTAG", "relative binding free energy": 0.209}
{"sequence": "TGTGGCACGTGGGAAT", "relative binding free energy": -0.126}
{"sequence": "AGGTACACGTGGGCTG", "relative binding free energy": -0.669}
{"sequence": "TGTTCCACGTGGCATT", "relative binding free energy": 0}
{"sequence": "TAGTTCACGTGATTAA", "relative binding free energy": 1.55}
{"sequence": "CGGTTCACGTGGTGCT", "relative binding free energy": 0.753}
{"sequence": "AGTTTCACGTGTTCAT", "relative binding free energy": 1.13}
{"sequence": "GTAGTCACGTGTTCTT", "relative binding free energy": 0.418}
{"sequence": "ACGGTCACGTGAGAGG", "relative binding free energy": 0.711}
{"sequence": "ACATGCACGTGGTGTT", "relative binding free energy": -1.21}
{"sequence": "AGCATCACGTGGTGTT", "relative binding free energy": 0.544}
{"sequence": "GTGAACACGTGTAGGT", "relative binding free energy": 0}
{"sequence": "TGCGACACGTGTTGGG", "relative binding free energy": -0.209}
{"sequence": "TGGTTCACGTGAAATA", "relative binding free energy": 2.34}
{"sequence": "AGGGCCACGTGATGGG", "relative binding free energy": 0.46}
{"sequence": "GCTAGCACGTGTTATG", "relative binding free energy": 0.0837}
{"sequence": "TGAAACACGTGTTGGG", "relative binding free energy": 0.711}
{"sequence": "GGGTGCACGTGGCGGG", "relative binding free energy": -0.293}
{"sequence": "TCTAACACGTGGTGTT", "relative binding free energy": 0.502}
{"sequence": "TATGTCACGTGTGCGG", "relative binding free energy": 0.544}
{"sequence": "GGCAACACGTGTTGTA", "relative binding free energy": 0.418}
{"sequence": "AGCGGCACGTGGAGAG", "relative binding free energy": 0}
{"sequence": "TCGGTCACGTGTTCGT", "relative binding free energy": 0.669}
{"sequence": "AGATACACGTGCGAGG", "relative binding free energy": 0.669}
{"sequence": "CACGTCACGTGGGGGG", "relative binding free energy": -0.46}
{"sequence": "CGAGGCACGTGTGAGT", "relative binding free energy": 0.377}
{"sequence": "ATCAGCACGTGGGAGT", "relative binding free energy": -0.795}
{"sequence": "AGGGTCACGTGTTTGG", "relative binding free energy": 0.711}
{"sequence": "TGGCGCACGTGTGGGC", "relative binding free energy": 0.167}
{"sequence": "GGTTGCACGTGCGGGG", "relative binding free energy": 0.0418}
{"sequence": "GGTAGCACGTGCTGTG", "relative binding free energy": -0.209}
{"sequence": "TGCAGCACGTGGAGGT", "relative binding free energy": -0.377}
{"sequence": "AAAATCACGTGGTTTT", "relative binding free energy": 0.628}
{"sequence": "TTGGCCACGTGTGTAT", "relative binding free energy": 0}
{"sequence": "AAAATCACGTGTGGGG", "relative binding free energy": 1.42}
{"sequence": "GTGGACACGTGGTTTA", "relative binding free energy": 0.377}
{"sequence": "AGGTGCACGTGTCACG", "relative binding free energy": 0}
{"sequence": "CGGGGCACGTGTATGG", "relative binding free energy": -0.0418}
{"sequence": "TGTGACACGTGGTGAT", "relative binding free energy": 0}
{"sequence": "TAGTGCACGTGTTATT", "relative binding free energy": -0.209}
{"sequence": "GGGGGCACGTGCGAGG", "relative binding free energy": -0.377}
{"sequence": "TGGTTCACGTGGCACG", "relative binding free energy": 1.05}
{"sequence": "GGGCTCACGTGGGTGT", "relative binding free energy": 0.418}
{"sequence": "TATCTCACGTGATTAG", "relative binding free energy": 1.17}
{"sequence": "TGTGGCACGTGCGTCT", "relative binding free energy": -1.09}
{"sequence": "TTTGGCACGTGTACTT", "relative binding free energy": -0.126}
{"sequence": "TAGGACACGTGAGGAT", "relative binding free energy": 1.42}
{"sequence": "GTTCGCACGTGTGGTG", "relative binding free energy": 0.335}
{"sequence": "GGAAGCACGTGAGGGC", "relative binding free energy": 0.544}
{"sequence": "GTAGACACGTGTCGTG", "relative binding free energy": -0.0837}
{"sequence": "GTTTGCACGTGTAATT", "relative binding free energy": 1}
{"sequence": "ATCTACACGTGAGGGT", "relative binding free energy": 0.293}
{"sequence": "CGTAACACGTGTTTTG", "relative binding free energy": 0.0837}
{"sequence": "TAGTTCACGTGTCATA", "relative binding free energy": 0.46}
{"sequence": "ATTGGCACGTGGGCGG", "relative binding free energy": -1.3}
{"sequence": "ATCAGCACGTGTTAGT", "relative binding free energy": -0.0418}
{"sequence": "GGACGCACGTGAGGCG", "relative binding free energy": 0.586}
{"sequence": "GGTGTCACGTGGTCCT", "relative binding free energy": 0.126}
{"sequence": "GTCTGCACGTGGTGTG", "relative binding free energy": -0.544}
{"sequence": "GAGATCACGTGGAGGG", "relative binding free energy": 0.962}
{"sequence": "GTGAGCACGTGCTTAG", "relative binding free energy": -0.418}
{"sequence": "AAATACACGTGGTGGT", "relative binding free energy": -0.335}
{"sequence": "TAGTTCACGTGGTTAC", "relative binding free energy": 1.46}
{"sequence": "TTAGTCACGTGCGGTG", "relative binding free energy": -0.0418}
{"sequence": "TTAAACACGTGGTTCG", "relative binding free energy": -0.0837}
{"sequence": "GTTATCACGTGTTGAG", "relative binding free energy": 0.251}
{"sequence": "AGATTCACGTGTGGTT", "relative binding free energy": 1}
{"sequence": "TCGGGCACGTGGGATG", "relative binding free energy": -0.418}
{"sequence": "CATTGCACGTGAGATT", "relative binding free energy": 0.962}
{"sequence": "GGCTTCACGTGGATAT", "relative binding free energy": 1.09}
{"sequence": "GGGAGCACGTGAACGG", "relative binding free energy": 0.586}
{"sequence": "TCAAACACGTGGGGGG", "relative binding free energy": -0.92}
{"sequence": "GAAGTCACGTGTAAGG", "relative binding free energy": 1.42}
{"sequence": "AGGGTCACGTGGGCGT", "relative binding free energy": -0.251}
{"sequence": "ATTAGCACGTGATGTA", "relative binding free energy": 0.209}
{"sequence": "GAGTTCACGTGGGGGA", "relative binding free energy": 1.3}
{"sequence": "TTAATCACGTGGTGGA", "relative binding free energy": 0.418}
